# Experimental data taken from article PMC4336329 (PLoS ONE, 2015).
# In all, about 310,000 compounds went through this assay and about 2,200 (0.71%) showed an effect of 50% or more. The effect is printed as a negative number. The list shows a part of the results.
# Molecular target: human ether-à-go-go-related gene (hERG) potassium channel (human, UniProt Q12809)
# Assay: primary screen, population patch clamp on CHO cells stably expressing hERG
# human ether-à-go-go-related gene (hERG) potassium channel, sequence (Q12809 whole entry, looked up): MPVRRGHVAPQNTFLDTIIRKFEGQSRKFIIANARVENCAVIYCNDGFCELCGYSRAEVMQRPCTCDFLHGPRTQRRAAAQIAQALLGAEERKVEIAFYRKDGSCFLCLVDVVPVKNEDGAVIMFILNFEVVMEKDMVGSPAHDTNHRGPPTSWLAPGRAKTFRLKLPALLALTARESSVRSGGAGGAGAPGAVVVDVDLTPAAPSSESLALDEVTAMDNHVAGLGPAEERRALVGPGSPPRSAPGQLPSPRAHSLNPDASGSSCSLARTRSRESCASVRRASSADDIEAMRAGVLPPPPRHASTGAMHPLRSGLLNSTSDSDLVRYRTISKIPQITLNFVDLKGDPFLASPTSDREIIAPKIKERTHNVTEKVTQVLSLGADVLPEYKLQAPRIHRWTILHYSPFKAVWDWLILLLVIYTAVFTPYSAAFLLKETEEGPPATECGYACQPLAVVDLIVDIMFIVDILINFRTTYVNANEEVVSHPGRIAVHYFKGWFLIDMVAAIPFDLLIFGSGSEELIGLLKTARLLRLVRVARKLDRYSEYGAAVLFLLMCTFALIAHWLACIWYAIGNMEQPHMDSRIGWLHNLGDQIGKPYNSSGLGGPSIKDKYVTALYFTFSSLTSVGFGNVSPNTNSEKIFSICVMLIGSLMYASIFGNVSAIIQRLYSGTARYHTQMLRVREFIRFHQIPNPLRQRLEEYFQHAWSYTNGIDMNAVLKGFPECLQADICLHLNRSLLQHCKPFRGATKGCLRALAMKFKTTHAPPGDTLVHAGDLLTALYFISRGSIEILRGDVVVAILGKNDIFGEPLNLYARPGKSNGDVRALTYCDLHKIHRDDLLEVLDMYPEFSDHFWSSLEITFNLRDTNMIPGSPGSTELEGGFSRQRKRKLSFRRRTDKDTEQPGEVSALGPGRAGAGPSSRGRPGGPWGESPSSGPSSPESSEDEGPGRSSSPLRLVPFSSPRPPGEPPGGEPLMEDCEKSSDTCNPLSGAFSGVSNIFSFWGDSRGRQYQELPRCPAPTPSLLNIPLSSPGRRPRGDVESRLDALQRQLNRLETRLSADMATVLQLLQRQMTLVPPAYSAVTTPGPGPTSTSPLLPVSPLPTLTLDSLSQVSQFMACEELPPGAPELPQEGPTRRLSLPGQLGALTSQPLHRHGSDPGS
row,Structure (SMILES),"hERG current change (%, negative = inhibition) at 1uM [%]"
1,COc1cc(C(=O)N(CCc2ccccc2)C2=CC3CCC(C2)N3C)cc(OC)c1OC.Cl.O (stereo not drawn),-13.5
2,O=C1CSC(=S)N1c1cccc(F)c1,13.1
3,COC(=O)[C@@H]1C[C@H]2CC[C@H](O)C[C@H]2N1Cc1ccc(Cl)cc1,7
4,CC(=O)CCc1ccc(OCC(O)CNCCOc2ccc(C)cc2)cc1 (stereo not drawn),-13.2
5,Cc1ccccc1OC(=O)c1cccnc1,9.31
6,CC1=NN(C(=O)c2c(Br)c(C)nn2C)C(O)(C(F)(F)F)C1 (stereo not drawn),3.91
7,CCC(Oc1ccc(C)cc1)C(=O)Nc1ccc(S(=O)(=O)Nc2cc(C)on2)cc1 (stereo not drawn),20.5
8,O=C1ON=C(c2ccccc2)/C1=C\c1ccco1,3.9
9,COCCNC(=O)/C(C#N)=C\c1ccc(CNC(=O)C(=O)Nc2ccc(C)c(C)c2)o1,-14.9
10,Cc1nccn1CC1CCc2c(c3ccccc3n2C)C1=O.Cl.O (stereo not drawn),0.51
11,Cc1nnc(SCC(=O)NCc2ccccc2Cl)n(N)c1=O,-1.98
12,Cc1ccc(OCCCn2c(=O)oc3ccccc32)cc1,4.19
13,S=c1oc(-c2ccncc2)nn1CCc1ccncc1,11
14,COC(=O)CN1C(c2ccccc2O)Nc2ccc(Br)cc2C1c1ccccc1 (stereo not drawn),0.533
15,COc1ccc(Cl)cc1C(=O)Nc1nc2ccccc2[nH]1,23.3
16,O=C(Cc1c[nH]c2ccccc12)NCc1ccc(Cl)cc1,15.7
17,CC12COC3(C(=O)Nc4ccc(F)cc4)CC1CCC32C (stereo not drawn),2.06
18,CC(C)c1ccc(NC2CCCN(C(=O)c3ccoc3)C2)cc1 (stereo not drawn),15
19,Cc1ccc(NS(=O)(=O)c2cc(Br)cnc2N)c(Cl)c1,15.1

row,Structure (SMILES),"hERG current change (%, negative = inhibition) at 1uM [%]"
1,Cc1ccc(Cn2c([N+](=O)[O-])cnc2C)cc1,12.4
2,COc1cc(/C=N/NC(=O)COc2cccc(F)c2)ccc1OS(=O)(=O)c1ccc(C)cc1,12.9
3,CC(C)NC(=O)CSc1ncccc1-c1nc2ccccc2[nH]1,4.5
4,CC(=O)Nc1ccc(NC(=O)CS(=O)(=O)Cc2ccccc2)cc1,-0.496
5,COc1ccccc1CCN=C(N)NS(=O)(=O)c1ccccc1,-10.2
6,CCCCOC(=O)c1ccc(OC(=O)c2cccnc2)cc1,5.73
7,CCCn1c(SC/C(O)=C(\C#N)c2nc3ccccc3[nH]2)n[nH]c1=O,10.2
8,COc1ccc(OC)c(N=Cc2c(O)[nH]c(=O)[nH]c2=O)c1,14.4
9,Cl.OCCN1CCN(CCOc2ccccc2-c2ccccc2)CC1,6.46
10,Cc1ccc(N2C(=O)N3[C@H](c4ccc(Br)cc4)[C@@H]4C(=O)N(C(C)(C)C)C(=O)[C@@H]4[C@]3(C)C2=O)cc1,6.72
11,COc1ccc2sc(C)[n+](C)c2c1.[I-],14.4
12,Cc1ccc(C(=O)N2CCN(c3ccccc3F)CC2)cc1S(=O)(=O)N1CCOCC1,16.1
13,CC(/C=C1\SC(=O)N(CC(=O)Nc2cccc(O)c2)C1=O)=C\c1ccccc1,18.4
14,O=C(CCN=C1NS(=O)(=O)c2ccccc21)OCC(=O)c1ccccc1,-5.87
15,CC(C)(C)NC(=O)COC(=O)c1cncc(Br)c1,3.74
16,COc1cc(COCC(O)CN2CCc3ccccc3C2)cc(OC)c1OC.Cl (stereo not drawn),7.29
17,CC(C)(C)n1c(O)c(C=Nc2ccc3c(c2)CCC3)c(=O)[nH]c1=O,10.1
18,CCN(CC)S(=O)(=O)c1ccc(Nc2ccc(-c3ccc4c(c3)OCCO4)nn2)cc1,10.1
19,CCCCn1c(N)c(N(CCOC)C(=O)CSCC(=O)Nc2cccc(C)c2)c(=O)[nH]c1=O,8.98

row,Structure (SMILES),"hERG current change (%, negative = inhibition) at 1uM [%]"
1,Cc1ccccc1Cn1c(CN2CCN(c3ccc(F)cc3)CC2)nc2c1c(=O)n(C)c(=O)n2C,6.86
2,COCCn1c(=NC(=O)c2ccc3c(c2)OCCO3)sc2cc(S(N)(=O)=O)ccc21,2.81
3,COc1ccc(-c2c(C)oc3c(CN4CCN(C)CC4)c(O)ccc3c2=O)cc1,12.5
4,Cc1ccc(S(=O)(=O)N2CCN(C(=O)CSc3n[nH]c(N)n3)CC2)c(C)c1,2.14
5,COC(=O)CSC1=C(C#N)C(c2ccc(C)o2)CC(=O)N1 (stereo not drawn),15.4
6,Cc1ccc(C2Nc3ccccc3C(=O)N2CCCN2CCOCC2)cc1 (stereo not drawn),5.5
7,CC(=O)c1c(C)nc(-c2ccc(Cl)cc2)nc1N=CN(C)C,15.4
8,COc1ccc(Cl)cc1NC(=O)CSc1nnc(C)c(=O)n1N,14.1
9,Cc1ccccc1NC(=S)N(CCc1c(C)[nH]c2ccc(F)cc12)Cc1ccncc1,7.37
10,CCOC(=O)C(C(=O)OCC)C(Nc1ccc(Br)cc1)c1ccccc1 (stereo not drawn),-1.19
11,CC(/C=N/NC(=O)c1cc(-c2ccc(Cl)cc2)nc2ccccc12)=C\c1ccco1,21.1
12,CCN1C(=O)/C(=C\c2ccc3c(c2)OCO3)C(C(=O)OC)=C1C,13.1
13,COc1cccc(N/C=C/C(=O)c2ccc(C)cc2)c1,11.6
14,Cc1ccc(Cl)cc1N(CC(=O)N1CCCCCC1)S(C)(=O)=O,7.25
15,Cc1noc(C)c1COc1ccc(C(=O)NCC2CCCO2)cc1 (stereo not drawn),11.4
16,Cc1nccn1-c1c([N+](=O)[O-])c(=O)n(C)c2ccccc12,11.9
17,CCC(C)C(NC(C)=O)C(=O)NC(=O)NC(c1ccccc1)c1ccccc1 (stereo not drawn),5.03
18,CN1C2CCC1CC(NS(=O)(=O)c1cc(Cl)c(Cl)cc1Cl)C2 (stereo not drawn),13.3
19,O=C(NC1CCSc2ccccc21)c1c(F)cccc1Cl (stereo not drawn),12.6
